Experimental data published in the supplement of paper PMC3334620.
Over roughly 33,000 sequences, “E-score (-0.5 to 0.5)” has its median near -0.013; the highest 2% begin near 0.3. The list shows a part of the results.

molecular target: T1, Msn1 (UniProt P22148); assay: PBM E-score (8-mer binding enrichment) (E-score (-0.5 to 0.5)); higher = stronger / more preferred TF binding; most listed sequences are background and not binding sites; settings: protein concentration: 200 nM; construct: GST-full length
T1 sequence: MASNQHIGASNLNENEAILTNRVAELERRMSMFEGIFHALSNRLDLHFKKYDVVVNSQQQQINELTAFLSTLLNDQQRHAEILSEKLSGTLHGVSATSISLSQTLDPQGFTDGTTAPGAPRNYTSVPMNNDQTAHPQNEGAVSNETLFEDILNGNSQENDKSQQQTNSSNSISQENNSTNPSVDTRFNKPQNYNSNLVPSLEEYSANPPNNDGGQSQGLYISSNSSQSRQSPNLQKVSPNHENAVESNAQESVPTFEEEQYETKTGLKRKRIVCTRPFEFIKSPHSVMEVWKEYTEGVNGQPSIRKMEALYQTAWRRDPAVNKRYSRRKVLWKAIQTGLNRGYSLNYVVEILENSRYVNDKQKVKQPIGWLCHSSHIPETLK
How it was run: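 PURExpress in vitro transcription/translation supplied GST-tagged yeast transcription factors, either full-length or DNA-binding domain. Applied at about 100-200 nM to universal all-10-mer Agilent arrays double-stranded by primer extension, the bound protein was detected with fluorescent anti-GST. E-scores, modified Wilcoxon-Mann-Whitney statistics, were given by the Universal PBM Analysis Suite to ungapped eight-base words pooled with their reverse complements after masliner normalisation.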

| Sequence | PBM E-score |
| --- | --- |
| AGTAAGTC | -0.0393 |
| CCAATCTA | -0.0717 |
| AATCCCGC | 0.126 |
| CTGTAAAC | -0.0793 |
| CGTATACC | -0.305 |
| TAGAGGGA | -0.154 |
| ACGCCACA | 0.151 |
| CTTCCCTC | -0.31 |
| ACCTCCCT | -0.226 |
| ACCGGAGC | -0.131 |
| CGGCATCC | 0.101 |
| AAGCAGGT | -0.0389 |
| CAACCTCG | -0.0389 |
| CGAATACG | 0.00759 |
| CGCCAGTA | -0.226 |
| CAGTTTCC | -0.0764 |
| GATTCGCC | -0.133 |
| GATCGTAC | -0.204 |
| AAGGTCCG | -0.0417 |
| ACCACCTC | -0.00496 |
| TGGCCAAA | 0.0563 |
| GGAGGGTA | -0.135 |
| CCCTACAA | 0.0189 |
| GGCAAAAA | 0.269 |
| AAAACGCG | 0.124 |

| Sequence | PBM E-score |
| --- | --- |
| AGTCGTCA | 0.0866 |
| ACATCTCT | 0.121 |
| CTAGCTTC | 0.0402 |
| AACATTTG | 0.0852 |
| AGAGAAAT | 0.0169 |
| AAACGTGG | -0.15 |
| GAGGTGCA | 0.0087 |
| AAAGCGCC | -0.0634 |
| AGATAATA | 0.0386 |
| AAATGAAT | -0.0537 |
| CGTTCCTA | -0.249 |
| ACTGGATC | -0.0281 |
| ATACTGCA | 0.0924 |
| CAGATCAG | 0.018 |
| CGCCACTC | -0.178 |
| CGACTATA | 0.0562 |
| AGCCCTAA | -0.0523 |
| ACACACGA | 0.0747 |
| CTATCCAC | 0.0131 |
| AGCCCATG | -0.0144 |
| AGTCTCGG | 0.11 |
| ATGGCATA | 0.061 |
| CTCTTAAA | 0.144 |
| CTTATATC | 0.0464 |
| AGATCCCC | -0.223 |

| Sequence | PBM E-score |
| --- | --- |
| CCTAATCA | 0.0796 |
| AGGATAGA | -0.123 |
| ATTACTTC | -0.0372 |
| CCTTTGGA | -0.149 |
| AGTCCCCC | -0.357 |
| AGAAGAAT | -0.0335 |
| CACTCACC | -0.249 |
| AAGGCTCT | -0.105 |
| ATGTCCCC | 0.479 |
| AATATACA | 0.173 |
| CGTGTTCA | 0.161 |
| GGTGGTGA | -0.0848 |
| TAACCTTA | -0.126 |
| CTCCTTAA | -0.0988 |
| GGCTGGAC | -0.135 |
| AGTCACTG | -0.134 |
| ATTTAAAC | 0.226 |
| ATATGTCG | 0.379 |
| ACGAACTC | 0.149 |
| CAGGACGG | -0.092 |
| ATCTCAAT | -0.0866 |
| ACAGTGCT | 0.104 |
| ACGCTAAT | -0.223 |
| GGTGTGTA | 0.0653 |
| GCTCAAGA | -0.102 |

| Sequence | PBM E-score |
| --- | --- |
| CTGTATTC | 0.16 |
| CCATTGCC | -0.151 |
| CCGAATCC | 0.0949 |
| CCGATGAG | -0.114 |
| CGCTCGCC | -0.0254 |
| CTCCGCGA | 0.0183 |
| AGTCTCCA | -0.063 |
| TAATGGCA | 0.0823 |
| CTCTTGCA | -0.158 |
| ACCTTGAC | -0.0322 |
| ACATCCTC | 0.0488 |
| ATCTCACC | 0.145 |
| GGGTAGAC | -0.151 |
| CGGCCAAG | 0.00784 |
| CTAGTCAA | -0.0557 |
| ACCATGAT | -0.066 |
| TTGGCAAA | 0.182 |
| CCCTTGTC | 0.204 |
| ATAGTGCC | 0.0111 |
| GGAGATAA | 0.158 |
| ACCTTACA | -0.0523 |
| CCGCACGC | -0.199 |
| TAAGGCTA | -0.0383 |
| AAGAGATT | 0.161 |
| CCTTTAAA | -0.0699 |

| Sequence | PBM E-score |
| --- | --- |
| ACGTAAAA | 0.0674 |
| GCGACGAA | 0.0334 |
| AAGCAATG | 0.0763 |
| GGTTACTA | -0.00381 |
| AACACATC | -0.0538 |
| AGAGCGCT | -0.219 |
| ATCCGACG | 0.0674 |
| AACTGACG | -0.153 |
| CCGTTCGC | -0.0924 |
| ACACCCTA | -0.0566 |
| AAGCAACC | -0.0237 |
| CCGCAGCC | -0.199 |
| AGTTGAAG | 0.0577 |
| CACATAAC | 0.0195 |
| ATCGGAAT | 0.243 |
| GCCTGTCA | 0.0454 |
| CCTCTGGA | -0.182 |
| ACATAAGG | 0.201 |
| GGACGGTA | 0.0269 |
| AGGACGAT | -0.0393 |
| CGCGCATA | -0.128 |
| AGGAACCG | -0.0657 |
| CACGCGAC | -0.0267 |
| AGATACAG | 0.00761 |
| ACTGGCAG | 0.0189 |

| Sequence | PBM E-score |
| --- | --- |
| GATCTCGA | 0.0669 |
| CGACCTTC | 0.0241 |
| AGGCCTTC | 0.0459 |
| ACCTGAGT | -0.0322 |
| GTCGCATA | 0.145 |
| GACATGCA | 0.276 |
| ATGGGTCG | -0.262 |
| CGACAGCA | -0.0706 |
| GCATGTGA | -0.0233 |
| CTTCCAGA | -0.0473 |
| CGGCGTAA | 0.0867 |
| CTCATACA | 0.0476 |
| AATTCCAA | 0.0187 |
| ATCGGCCC | 0.0202 |
| AAACAGAA | 0.0771 |
| CCTCACTA | -0.111 |
| TATTAGGA | 0.287 |
| CCTTTTGC | -0.0414 |
| ACTTTAAG | 0.193 |
| GCATCCGC | -0.0357 |
| ACGCCTGC | -0.142 |
| GCTCCTAA | -0.277 |
| AGGATCCC | -0.104 |
| GGTCAAAC | 0.114 |
| CCCTCGCA | -0.186 |

| Sequence | PBM E-score |
| --- | --- |
| GCTCAGAA | -0.143 |
| GTCGGAAC | 0.0293 |
| GCAACTGA | -0.0228 |
| GGGATAAA | 0.149 |
| ACACGCAG | -0.117 |
| AGCGCACG | -0.0829 |
| ACAGTAGG | -0.107 |
| AGACTATC | 0.0636 |
| ATTCAGTG | -0.0153 |
| TAGGGAGA | -0.215 |
| AGGCGTGC | -0.133 |
| CAGCCGAC | -0.0347 |
| ATTAGTTA | 0.189 |
| CACGTCCA | 0.0832 |
| AGACCTGA | 0.0302 |
| TCCTTAGA | 0.117 |
| GTCATCAC | -0.0376 |
| GCCTCTCC | -0.294 |
| AATATTAG | 0.131 |
| ATCGCGCA | -0.0399 |
| GAACACAA | 0.0618 |
| AAGCCATC | -0.026 |
